# Laboratory results taken from ChEMBL document CHEMBL4888484, “Replenishing the malaria drug discovery pipeline: Screening and hit evaluation of the MMV Hit Generation Library 1 (HGL1) against asexual blood stage Plasmodium falciparum ,using a nano luciferase reporter read-out” (2022).
# Hit rate of the full screen: of about 150,000 compounds, about 540 (0.36%) showed an effect of 50% or more. The list shows a part of the results.
# Test system: Plasmodium falciparum
# Assay: Primary screen in NF54 nanoGlo assay, in single point, at 2uM, 72h; a lower Z score goes with more inhibition
# Assay type: functional, Erythrocyte
# Settings: timepoint 72 hour
SMILES,% Inhibition [%],Z score
c1cc(C[C@@H]2CC[C@H](CN3CCOCC3)O2)cc(N2CCNCC2)c1,-2,0.18
O=C1CCN(C(=O)c2ccc(S(=O)(=O)c3ccccc3)cc2)C2CCCCC12 (stereo unspecified),21,-2.33
COc1cccc(CC2(C(=O)N3C[C@H](O)C[C@@H]3c3nc(C)no3)CCCCC2)c1,-5,0.87
COc1ccccc1-c1cnc(Cn2ccnn2)o1,-3,0.31
CN(Cc1cnc2ccccc2c1)C[C@H]1CCCCN1C,1,-0.14
CN1CCC(NC(=O)CC2OCCCO2)C1c1ccccc1 (stereo unspecified),-1,0.22
CCC(NC(=O)NCC1CN2CCCC2CO1)c1c(C)nn(C)c1C (stereo unspecified),2,-0.18
COCCCOc1ccc(C(=O)N(CCN(C)C)CC(C)C)cn1,-6,1.06
CCc1ccc(Nc2ncnc(N3CCCC3)c2C#N)cc1,-16,1.57
FC(F)(F)c1ccc([C@@H]2CNCCN2)cc1,0,-0.02
O=C(CC[C@@H]1N=C(O)N(Cc2ccccc2)C1=O)Nc1cccc(Cl)c1,1,-0.08
Cc1ccc(F)cc1NC(=O)NC1CCOC2(CCOC2)C1 (stereo unspecified),1,-0.14
N#Cc1cccnc1OC1CCC2(CC1)OCCO2,2,-0.34
COc1ccc(OCC(=O)N2CCCN(c3cc(=O)n(C(C)C)c(=O)n3C(C)C)CC2)cc1,-11,1.87
CCOc1ccc(CN(C)[C@@H](CC)c2ccccn2)cn1,11,-1.71
Brc1cnn(CCc2ccc(N[C@H]3CCCn4ccnc43)cc2)c1,-1,0.19
CCCN(CC(F)F)C(=O)c1ccn(C(F)F)n1,-7,0.7
CCOC(=O)N1CCN(C(=O)c2cccc(-c3cccc(C#N)n3)c2)CC1,0,0.03
CC(C)N1C(=O)C2C3CC4C(OC1C42)C3O (stereo unspecified),-3,0.23
COc1ccc(-c2csc(CCn3nc(C)c4c(C(F)(F)F)cc(-c5cccs5)nc43)n2)cc1,-1,0.13
Cn1nccc1CNCc1ccc(Br)c2cccnc12,10,-1.28

SMILES,% Inhibition [%],Z score
CC(C)(C)C(=O)NCC(=O)Nc1cccn(CC(F)(F)F)c1=O,-3,0.48
CC1OCCC1S(=O)(=O)NCCN1CC2CCC(C1)O2 (stereo unspecified),-2,0.27
CC(=Cc1ccccc1)CNC(C)(C)CCN1CCN(C)CC1,-3,0.58
COCC1(C(=O)N2CC[C@H]3[C@H](CCC(=O)N3CCc3cccs3)C2)CCC1,-2,0.38
Cc1cnc(C(=O)Nc2ccc3c(c2)NC(=O)[C@H](C)O3)cn1,-6,1.05
Cc1cn(CC(=O)c2ccc(NC(=O)CC(C)C)cc2)cc(Br)c1=O,-23,2.31
O=C(c1cccs1)N1CCN(S(=O)(=O)c2cccc3nonc23)CC1,-15,1.81
CCNC(=O)NCCOC(=O)c1ccccc1COC,-11,1.08
C#CCOC[C@@H](O)CN(Cc1ccco1)Cc1c(-c2ccccc2)nn(C)c1Oc1ccc(C)cc1,13,-1.91
Cc1ccc(-n2nc(C(=O)Nc3cc(Cl)ccc3C)cc2-c2cccnc2)cc1,-4,0.48
Cc1c(NC(=O)[C@@H]2CCCO2)cccc1C(=O)N1CCc2sccc2C1,9,-1.17
CC(C)CN([C@H]1CCCc2cccnc21)S(=O)(=O)c1cnnn1C,-3,0.3
CCc1cnc(C)nc1-c1ccc(C(=O)N(CC)[C@H]2COC[C@@H]2O)cc1,0,0.01
COc1ccc(N2CCN(C(=O)c3ccc4ccccc4n3)CC2)cc1,-1,0.15
Cc1nn(C)c(C)c1C(=O)C(=O)N(CCc1cccc(F)c1)C1CC1,-6,0.79
COCC(=O)N[C@H]1[C@H](c2ccccc2)N(CC2CC2)CC[C@@]1(C)O,-2,0.23
O=C(CCc1ccc(O)cc1)N1C[C@H]2CC[C@@H](C1)N(CC1CCC1)C2=O,4,-0.59
COc1cc(C(=O)OCC(=O)NC2CCCCCC2)ccn1,-14,1.9
C[C@@H](COc1ccccc1)NCCS(=O)(=O)N(C)C,-23,2.34
COC(=O)[C@]1(NC(=O)c2cccn2C)CCCN(Cc2ccccc2)C1,-7,1.02
Cn1ccnc1C(=O)NCc1cccc2[nH]ccc12,-19,1.66

SMILES,% Inhibition [%],Z score
CCc1ncncc1C(=O)N1CCN(C2CCC2)C[C@H](C)C1,-4,0.42
Cc1cccc(NC(=O)C(=O)c2ccc3c(c2)CCC3)c1,-4,0.58
N#CCc1ccc(OCc2ccccc2NC(=O)NC2CCCCC2C#N)cc1 (stereo unspecified),-1,0.18
O=C(c1cnc[nH]1)N1CC[C@@]2(CCCN(CCC3CCCCC3)C2)C1,-6,0.78
O=C(NCC(F)F)[C@H]1CCCN(C2CCN(C3Cc4ccccc4C3)CC2)C1,-12,1.47
CCCc1nc(N2CCCN(C(=O)Nc3ccc(C)c(Cl)c3)CC2)c2c(C)nn(-c3ccccc3)c2n1,4,-0.72
O=C(NC(c1ccccc1)c1ccccc1)c1csc(CN(Cc2ccc(F)cc2)Cc2ccc(Cl)cc2)n1,-18,1.79
CC(C)(C)c1cc(C(=O)Nc2nnc(-c3ccoc3)[nH]2)[nH]n1,5,-0.64
O=C(NCC(F)F)c1ccc(Cl)cn1,-3,0.51
O=C(Nc1nn(-c2cccc(F)c2)c2cccc(N3CCOC3=O)c12)C1CCC1,0,0.01
CC(C)[C@H]1CN(C(=O)CCCn2cncn2)C[C@@H]1NS(=O)(=O)N(C)C,-3,0.48
Cc1nc(CCNC(=O)C2CC2c2ccncc2)cs1 (stereo unspecified),-2,0.23
O=C(c1ccc(O)cc1)N1CCN(Cc2ccccn2)[C@@H]2CS(=O)(=O)C[C@@H]21,3,-0.42
Cc1ccc(C(=O)N2CCC[C@H]2c2nnc3ccccn23)cc1F,5,-0.66
CC(C)c1ccn(C2(C(=O)O)CCN(Cc3cccc(C#N)c3)CC2)n1,-6,1.17
CCOC(=O)c1cc(-c2ccc(N3CCN(C(=O)c4ccc5c(c4)OCCN5C)CC3)cc2)n(-c2ccc(F)cc2)n1,2,-0.26
COc1ccc(Cl)cc1NC(=O)Cn1cnc2c(C(N)=O)nsc2c1=O,-8,1.02
Cc1n[nH]c(C)c1NC(=O)Nc1ccc2c(c1)C(=O)CCC2,-7,0.66
CN(C)CC[C@H]1CN(C/C=C/c2ccc(F)cc2)CCO1,15,-1.97
C[C@@H]1CN(C(=O)NCCc2ccccc2F)C[C@]1(C)O,-11,1.74
C[C@H](NS(=O)(=O)Cc1ccc(Cl)c(F)c1)c1nccs1,-11,1.54

SMILES,% Inhibition [%],Z score
O=C(O)[C@H]1CCCC[C@H]1C(=O)NCc1ccccc1,-9,1.22
O=C(Nc1cc(Oc2ccc(F)cc2)cc(Oc2ccc(F)cc2)c1)c1cc2nc(-c3cccs3)cc(C(F)(F)F)n2n1,-12,1.9
Cc1ccc(S(=O)(=O)NCC2(c3ccsc3)CCCC2)s1,2,-0.36
O=C(c1cc2ccccc2o1)N1CC(c2nc(-c3cnccn3)no2)C1,-5,0.86
CCc1ccnc(C(=O)Nc2nnn(C)c2C(F)F)c1,-12,1.29
CC(C)Oc1ccccc1NC(=O)NC1C2CCOC2C1(C)C (stereo unspecified),5,-0.73
Cc1cc(OCC(=O)c2ccc3c(c2)N(CC(=O)N2CCCC[C@@H]2C)C(=O)CO3)ccc1Cl,-2,0.24
Cc1nc(-c2ccc(N3CCN(C(=O)[C@@H]4CCC(=O)N4)CC3)nc2)no1,1,-0.07
Cc1cc2c(cc1C)O[C@H](C(=O)Nc1nnn[nH]1)C2,40,-5.1
O[C@H]1[C@H](NC2CCC2)[C@H]2CO[C@H](O2)[C@@H]1n1cnc2ccccc21,14,-1.64
Cc1ccc(C)c(-c2[nH]c([C@@H]3CC=CCC3)nc2-c2ccccc2)c1,1,-0.11
CC(C)(C)NC(=O)COC(=O)c1ccc(F)c(Cl)c1,30,-3.4
Cc1cc(CN2CC[C@H](c3nc(C)no3)C2)on1,-15,2.11
CCOc1cc(CNc2ccc(C(=O)NCCC(N)=O)cc2)c2c(c1)C[C@H](C)O2,-14,1.89
CCCc1cnc(C)nc1N1CCC2(CCC(=O)N(CCc3c[nH]cn3)C2)CC1,-23,3
Cn1ccnc1C(=O)N1CCC[C@@](F)(c2nc(-c3cccnc3)no2)C1,-10,1.32
CCOC(=O)C(NC(=O)CCC1CCC1)C(O)c1cccnc1 (stereo unspecified),-12,1.76
COCCC1(C(=O)Nc2nnn(Cc3ccccc3F)c2C)CCC1,7,-0.8
CC(C)c1cc(N(C)[C@H]2CCO[C@@H]2c2cccnc2)nc(N(C)C)n1,-6,1.14
CCn1cc(NC(=O)CCN2CCN(c3ccccc3)CC2)cn1,-14,1.46
